The record followed here is the supplement of paper PMC11876631.

± gives the standard deviation of the averaged measurements. Laboratory Escherichia coli strains with one amino-acid change in an essential protein, pooled on minimal glucose agar with carbenicillin or gentamicin at twice the control MIC (plus kanamycin and chloramphenicol for the plasmids), 48 h. Fold change of barcode share against drug-free plates; higher = less susceptible. Active = above 20 in both replicates (the paper's putatively resistant). '<' = one read or none on drug, '>' = one read or none on a drug-free plate. Shares are relative, so most strains fall below 1 when a few take over. Listed are strains with at least 15 reads on both drug-free plates, and hits; most hits rest on fewer reference reads. Replicate rank correlation about 0.5. Edits are read from barcodes.

B1: leuC V32Q (protein)
chain: MAKTLYEKLFDAHVVYEAENETPLLYIDRHLQHEVTSPQAFDGLRAHGRPVRQPGKTFATMDHNVSTQTKDINACGEMARIQMQELIKNCKEFGVELYDLNHPYQGIVHVMGPEQGVTLPGMTIVCGDSHTATHGAFGALAFGIGTSEVEHVLATQTLKQGRAKTMKIEVQGKAAPGITAKDIVLAIIGKTGSAGGTGHVVEFCGEAIRDLSMEGRMTLCNMAIEMGAKAGLVAPDETTFNYVKGRLHAPKGKDFDDAVAYWKTLQTDEGATFDTVVTLQAEEISPQVTWGTNPGQVISVNDNIPDPASFADPVERASAEKALAYMGLKPGIPLTEVAIDKVFIGSCTNSRIEDLRAAAEIAKGRKVAPGVQALVVPGSGPVKAQAEAEGLDKIFIEAGFEWRLPGCSMCLAMNNDRLNPGERCASTSNRNFEGRQGRGGRTHLVSPAMAAAAAVTGHFADIRNIK
B2: leuC V125Q (protein)
chain: MAKTLYEKLFDAHVVYEAENETPLLYIDRHLVHEVTSPQAFDGLRAHGRPVRQPGKTFATMDHNVSTQTKDINACGEMARIQMQELIKNCKEFGVELYDLNHPYQGIVHVMGPEQGVTLPGMTIQCGDSHTATHGAFGALAFGIGTSEVEHVLATQTLKQGRAKTMKIEVQGKAAPGITAKDIVLAIIGKTGSAGGTGHVVEFCGEAIRDLSMEGRMTLCNMAIEMGAKAGLVAPDETTFNYVKGRLHAPKGKDFDDAVAYWKTLQTDEGATFDTVVTLQAEEISPQVTWGTNPGQVISVNDNIPDPASFADPVERASAEKALAYMGLKPGIPLTEVAIDKVFIGSCTNSRIEDLRAAAEIAKGRKVAPGVQALVVPGSGPVKAQAEAEGLDKIFIEAGFEWRLPGCSMCLAMNNDRLNPGERCASTSNRNFEGRQGRGGRTHLVSPAMAAAAAVTGHFADIRNIK
B3: leuC V125A (protein)
chain: MAKTLYEKLFDAHVVYEAENETPLLYIDRHLVHEVTSPQAFDGLRAHGRPVRQPGKTFATMDHNVSTQTKDINACGEMARIQMQELIKNCKEFGVELYDLNHPYQGIVHVMGPEQGVTLPGMTIACGDSHTATHGAFGALAFGIGTSEVEHVLATQTLKQGRAKTMKIEVQGKAAPGITAKDIVLAIIGKTGSAGGTGHVVEFCGEAIRDLSMEGRMTLCNMAIEMGAKAGLVAPDETTFNYVKGRLHAPKGKDFDDAVAYWKTLQTDEGATFDTVVTLQAEEISPQVTWGTNPGQVISVNDNIPDPASFADPVERASAEKALAYMGLKPGIPLTEVAIDKVFIGSCTNSRIEDLRAAAEIAKGRKVAPGVQALVVPGSGPVKAQAEAEGLDKIFIEAGFEWRLPGCSMCLAMNNDRLNPGERCASTSNRNFEGRQGRGGRTHLVSPAMAAAAAVTGHFADIRNIK
B4: leuC V110A (protein)
chain: MAKTLYEKLFDAHVVYEAENETPLLYIDRHLVHEVTSPQAFDGLRAHGRPVRQPGKTFATMDHNVSTQTKDINACGEMARIQMQELIKNCKEFGVELYDLNHPYQGIVHAMGPEQGVTLPGMTIVCGDSHTATHGAFGALAFGIGTSEVEHVLATQTLKQGRAKTMKIEVQGKAAPGITAKDIVLAIIGKTGSAGGTGHVVEFCGEAIRDLSMEGRMTLCNMAIEMGAKAGLVAPDETTFNYVKGRLHAPKGKDFDDAVAYWKTLQTDEGATFDTVVTLQAEEISPQVTWGTNPGQVISVNDNIPDPASFADPVERASAEKALAYMGLKPGIPLTEVAIDKVFIGSCTNSRIEDLRAAAEIAKGRKVAPGVQALVVPGSGPVKAQAEAEGLDKIFIEAGFEWRLPGCSMCLAMNNDRLNPGERCASTSNRNFEGRQGRGGRTHLVSPAMAAAAAVTGHFADIRNIK
B5: leuC V201Q (protein)
chain: MAKTLYEKLFDAHVVYEAENETPLLYIDRHLVHEVTSPQAFDGLRAHGRPVRQPGKTFATMDHNVSTQTKDINACGEMARIQMQELIKNCKEFGVELYDLNHPYQGIVHVMGPEQGVTLPGMTIVCGDSHTATHGAFGALAFGIGTSEVEHVLATQTLKQGRAKTMKIEVQGKAAPGITAKDIVLAIIGKTGSAGGTGHVQEFCGEAIRDLSMEGRMTLCNMAIEMGAKAGLVAPDETTFNYVKGRLHAPKGKDFDDAVAYWKTLQTDEGATFDTVVTLQAEEISPQVTWGTNPGQVISVNDNIPDPASFADPVERASAEKALAYMGLKPGIPLTEVAIDKVFIGSCTNSRIEDLRAAAEIAKGRKVAPGVQALVVPGSGPVKAQAEAEGLDKIFIEAGFEWRLPGCSMCLAMNNDRLNPGERCASTSNRNFEGRQGRGGRTHLVSPAMAAAAAVTGHFADIRNIK
B6: leuC M111Q (protein)
chain: MAKTLYEKLFDAHVVYEAENETPLLYIDRHLVHEVTSPQAFDGLRAHGRPVRQPGKTFATMDHNVSTQTKDINACGEMARIQMQELIKNCKEFGVELYDLNHPYQGIVHVQGPEQGVTLPGMTIVCGDSHTATHGAFGALAFGIGTSEVEHVLATQTLKQGRAKTMKIEVQGKAAPGITAKDIVLAIIGKTGSAGGTGHVVEFCGEAIRDLSMEGRMTLCNMAIEMGAKAGLVAPDETTFNYVKGRLHAPKGKDFDDAVAYWKTLQTDEGATFDTVVTLQAEEISPQVTWGTNPGQVISVNDNIPDPASFADPVERASAEKALAYMGLKPGIPLTEVAIDKVFIGSCTNSRIEDLRAAAEIAKGRKVAPGVQALVVPGSGPVKAQAEAEGLDKIFIEAGFEWRLPGCSMCLAMNNDRLNPGERCASTSNRNFEGRQGRGGRTHLVSPAMAAAAAVTGHFADIRNIK
B7: leuC M111D (protein)
chain: MAKTLYEKLFDAHVVYEAENETPLLYIDRHLVHEVTSPQAFDGLRAHGRPVRQPGKTFATMDHNVSTQTKDINACGEMARIQMQELIKNCKEFGVELYDLNHPYQGIVHVDGPEQGVTLPGMTIVCGDSHTATHGAFGALAFGIGTSEVEHVLATQTLKQGRAKTMKIEVQGKAAPGITAKDIVLAIIGKTGSAGGTGHVVEFCGEAIRDLSMEGRMTLCNMAIEMGAKAGLVAPDETTFNYVKGRLHAPKGKDFDDAVAYWKTLQTDEGATFDTVVTLQAEEISPQVTWGTNPGQVISVNDNIPDPASFADPVERASAEKALAYMGLKPGIPLTEVAIDKVFIGSCTNSRIEDLRAAAEIAKGRKVAPGVQALVVPGSGPVKAQAEAEGLDKIFIEAGFEWRLPGCSMCLAMNNDRLNPGERCASTSNRNFEGRQGRGGRTHLVSPAMAAAAAVTGHFADIRNIK
B8: leuC V201A (protein)
chain: MAKTLYEKLFDAHVVYEAENETPLLYIDRHLVHEVTSPQAFDGLRAHGRPVRQPGKTFATMDHNVSTQTKDINACGEMARIQMQELIKNCKEFGVELYDLNHPYQGIVHVMGPEQGVTLPGMTIVCGDSHTATHGAFGALAFGIGTSEVEHVLATQTLKQGRAKTMKIEVQGKAAPGITAKDIVLAIIGKTGSAGGTGHVAEFCGEAIRDLSMEGRMTLCNMAIEMGAKAGLVAPDETTFNYVKGRLHAPKGKDFDDAVAYWKTLQTDEGATFDTVVTLQAEEISPQVTWGTNPGQVISVNDNIPDPASFADPVERASAEKALAYMGLKPGIPLTEVAIDKVFIGSCTNSRIEDLRAAAEIAKGRKVAPGVQALVVPGSGPVKAQAEAEGLDKIFIEAGFEWRLPGCSMCLAMNNDRLNPGERCASTSNRNFEGRQGRGGRTHLVSPAMAAAAAVTGHFADIRNIK
B9: leuC M111A (protein)
chain: MAKTLYEKLFDAHVVYEAENETPLLYIDRHLVHEVTSPQAFDGLRAHGRPVRQPGKTFATMDHNVSTQTKDINACGEMARIQMQELIKNCKEFGVELYDLNHPYQGIVHVAGPEQGVTLPGMTIVCGDSHTATHGAFGALAFGIGTSEVEHVLATQTLKQGRAKTMKIEVQGKAAPGITAKDIVLAIIGKTGSAGGTGHVVEFCGEAIRDLSMEGRMTLCNMAIEMGAKAGLVAPDETTFNYVKGRLHAPKGKDFDDAVAYWKTLQTDEGATFDTVVTLQAEEISPQVTWGTNPGQVISVNDNIPDPASFADPVERASAEKALAYMGLKPGIPLTEVAIDKVFIGSCTNSRIEDLRAAAEIAKGRKVAPGVQALVVPGSGPVKAQAEAEGLDKIFIEAGFEWRLPGCSMCLAMNNDRLNPGERCASTSNRNFEGRQGRGGRTHLVSPAMAAAAAVTGHFADIRNIK
B10: leuC V110Q (protein)
chain: MAKTLYEKLFDAHVVYEAENETPLLYIDRHLVHEVTSPQAFDGLRAHGRPVRQPGKTFATMDHNVSTQTKDINACGEMARIQMQELIKNCKEFGVELYDLNHPYQGIVHQMGPEQGVTLPGMTIVCGDSHTATHGAFGALAFGIGTSEVEHVLATQTLKQGRAKTMKIEVQGKAAPGITAKDIVLAIIGKTGSAGGTGHVVEFCGEAIRDLSMEGRMTLCNMAIEMGAKAGLVAPDETTFNYVKGRLHAPKGKDFDDAVAYWKTLQTDEGATFDTVVTLQAEEISPQVTWGTNPGQVISVNDNIPDPASFADPVERASAEKALAYMGLKPGIPLTEVAIDKVFIGSCTNSRIEDLRAAAEIAKGRKVAPGVQALVVPGSGPVKAQAEAEGLDKIFIEAGFEWRLPGCSMCLAMNNDRLNPGERCASTSNRNFEGRQGRGGRTHLVSPAMAAAAAVTGHFADIRNIK
B11: leuC M111W (protein)
chain: MAKTLYEKLFDAHVVYEAENETPLLYIDRHLVHEVTSPQAFDGLRAHGRPVRQPGKTFATMDHNVSTQTKDINACGEMARIQMQELIKNCKEFGVELYDLNHPYQGIVHVWGPEQGVTLPGMTIVCGDSHTATHGAFGALAFGIGTSEVEHVLATQTLKQGRAKTMKIEVQGKAAPGITAKDIVLAIIGKTGSAGGTGHVVEFCGEAIRDLSMEGRMTLCNMAIEMGAKAGLVAPDETTFNYVKGRLHAPKGKDFDDAVAYWKTLQTDEGATFDTVVTLQAEEISPQVTWGTNPGQVISVNDNIPDPASFADPVERASAEKALAYMGLKPGIPLTEVAIDKVFIGSCTNSRIEDLRAAAEIAKGRKVAPGVQALVVPGSGPVKAQAEAEGLDKIFIEAGFEWRLPGCSMCLAMNNDRLNPGERCASTSNRNFEGRQGRGGRTHLVSPAMAAAAAVTGHFADIRNIK

The target of the first data set is Escherichia coli (laboratory strain). Briefly: barcode share on antibiotic plates over drug-free plates; higher = less susceptible. The note with it: antibiotic: carbenicillin; 2× MIC (3.1 µg/mL). The protocol:
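A pool of E. coli strains, each edited to carry one amino-acid change in an essential protein, was grown for 48 h on minimal glucose agar with or without antibiotic; strain barcodes were sequenced; mean of two replicates.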
Regarding B1, the “fold change of barcode share” value was determined as 1.49 ± 0.62.

Consider B2, for which the “fold change of barcode share” value was found to be 5.54 ± 0.55.

In the case of B3, the “fold change of barcode share” value was found to be 0.8024 ± 0.0037.

B4: the “fold change of barcode share” value was found to be 0.792 ± 0.68.

As to B5, the “fold change of barcode share” value was determined as 0.694 ± 0.05.

In the case of B6, the “fold change of barcode share” value is 1.9 ± 1.3.

With B7, the “fold change of barcode share” value was > 29.4 [active].

For B8, the “fold change of barcode share” value came to 0.503 ± 0.18.

As for B9, the “fold change of barcode share” value worked out at 0.563 ± 0.14.

Consider B10, for which the “fold change of barcode share” value was determined as 1.78 ± 1.4.

B11: the “fold change of barcode share” value amounted to 0.338 ± 0.088.

The same data set, now with this note: antibiotic: gentamicin; 2× MIC (MIC 0.45 µg/mL).
For B1, the “fold change of barcode share” value is 0.0818 ± 0.089.

With B3, the “fold change of barcode share” value is 0.00518 ± 0.004.

For the protein B5, the “fold change of barcode share” value is 0.0136 ± 0.011.

On to B6, for which the “fold change of barcode share” value is < 0.0144.

Turning to B8, the “fold change of barcode share” value came out at 0.153 ± 0.16.

On to B9, for which the “fold change of barcode share” value is < 0.0113.

With B11, the “fold change of barcode share” value is < 0.0153.
